Laboratory results published in patent US10604555B2, “GIP derivatives and uses thereof” (priority 2018, dated 2020).
Part of at least one peptide drawing is inferred or uncertain, most often the ends. For at least one compound, name, drawing or mass did not settle the structure. *1 amine or outer side, *2 acyl side, *3 side chain or, on linkers, in order; H or OH if unused. Where a SMILES comes first, the peptide text is derived from it. Where no end group is shown, it is not given here. Side-chain parts run from the residue outwards. [ ]: non-standard residue; d: D form. The star is where a group is joined. X1 = O=C(O)CCCCCCCCCCCCCCCCCCC(=O)NCC1CCC(C(=O)*)CC1; C18 diacid = O=C(O)CCCCCCCCCCCCCCCCC(=O)*; γGlu = O=C(O)[C@H](CCC(=O)[*:2])N[*:1]; Nle = CCCC[C@H](N)C(=O)O; Aib = CC(C)(N)C(=O)O

Experiments:
Type in all cases: physicochemical
[1] = ThT fibrillation assay (physical stability); settings: 250 μM, pH 7.4, 37° C., 45 hours of incubation
Experimental: The Thioflavin T assay was performed as outlined in Schlein (2017), AAPS J, 19(2), 397-408.
This has traditionally been measured by visual inspection of the sample. However, that kind of measurement is very cumbersome and depending on the observer. Therefore, the application of a small molecule indicator probe is much more advantageous. Thioflavin T (ThT) is such a probe and has a distinct fluorescence signature when binding to fibrils [Naiki et al. (1989) Anal. Biochem. 177, 244-249; LeVine (1999) Methods. Enzymol. 309, 274-284].
The time course for fibril formation can be described by a sigmoidal curve with the following expression [Nielsen et al. (2001) Biochemistry 40, 6036-6046]:
Here, F is the ThT fluorescence at the time t. The constant t0 is the time needed to reach 50% of maximum fluorescence. The two important parameters describing fibril formation are the lag-time calculated by t0−2τ and the apparent rate constant kapp 1/τ.
Few of those intermediates nucleate to form a template onto which further intermediates may assembly and the fibrillation proceeds. The lag-time corresponds to the interval in which the critical mass of nucleus is built up and the apparent rate constant is the rate with which the fibril itself is formed.
Samples are prepared freshly before each assay. The drug substance was solved with 250 μM of the GIP derivative in 8 mM phosphate, 14 mg/mL propylene glycol, 58 mM phenol, pH 7.4. The pH of the sample was adjusted to the desired value using appropriate amounts of concentrated NaOH and HCl. Thioflavin T was added to the samples from a stock solution in H2O to a final concentration of 1 μM.
Sample aliquots of 200 μl were placed in each well of a 96 well microtiter plate (Packard OptiPlate™-96, white polystyrene). Four replica of each sample (corresponding to one test condition) was placed in one column of wells. The plate was sealed with Scotch Pad (Qiagen).
Incubation, shaking and measurement of the ThT fluorescence emission were done in a Fluoroskan Ascent FL fluorescence platereader (Thermo Labsystems). […] Fluorescence measurement was done using excitation through a 444 nm filter and measurement of emission through a 485 nm filter.
Each run was initiated by incubating the plate at the assay temperature for 10 min. The plate was measured every 20 minutes for a desired period of time. Between each measurement, the plate was shaken and heated as described.
After completion of the ThT assay the replica of each sample was pooled and centrifuged at 20000 rpm for 30 minutes at 18° C. The supernatant was filtered through a 0.22 μm filter and an aliquot was transferred to a HPLC vial. The concentration of the filtered sample relative to the initial sample (in percentage) was reported as the recovery.
The measurement points were saved in Microsoft Excel format for further processing and curve drawing and fitting was performed using GraphPad Prism. […] The data points were a mean of the four replica and shown with standard deviation error bars. Only data obtained in the same experiment (i.e. samples on the same plate) were presented in the same graph ensuring a relative measure of fibrillation between experiments.
The data set may be fitted to Eq. (1).

[2] = Chemical stability: purity loss by LCMS; settings: 37° C., 4 weeks, 250 μM, pH 7.4
Experimental: The aim of this study is to determine the chemical stability of GIP derivative compositions. As a measure of stability of the GIP derivative composition, the formation of high molecular weight peptide formation (% HMWP) as a function of time was analysed by size-exclusion chromatography (SEC-MS). Further, the purity loss of the GIP derivative compositions was measured by LCMS. Samples for chemical stability assays were freshly prepared before each assay. […] The pH of the sample was adjusted to the desired value using appropriate amounts of concentrated NaOH and HCl. […] The column oven was kept at 55° C. […] The solvents were pumped from a binary solvent manager system and mixed on the high pressure side in a mixer with a volume of 50 μl. The gradient and flow can be seen in table 4: [table] A Flow-through-needle auto sampler at 8° C. was used to inject 1 μl of each sample. The effluent passed through a tunable UV detector (TUV) tuned to 215 nm. The outlet from the UV detector passed to the electrospray source of the mass spectrometer. The capillary was held at 3 kV and dry nitrogen gas was purged at a flow of 750 I/h and a temperature of 250° C. The source block was kept at 120° C. and the large bore cone was flushed with nitrogen at 50 I/h with standard electrode potentials on the rest of the instrument. The MS was operated in high resolution mode with a nominal resolution of 35000. The ToF analyser was operated in ADC mode with an m/z window from 100-2000.

[3] = Chemical stability: HMWP formation by SEC-MS; settings: 37° C., 4 weeks, 250 μM, pH 7.4
Experimental: The aim of this study is to determine the chemical stability of GIP derivative compositions. As a measure of stability of the GIP derivative composition, the formation of high molecular weight peptide formation (% HMWP) as a function of time was analysed by size-exclusion chromatography (SEC-MS). Further, the purity loss of the GIP derivative compositions was measured by LCMS. Samples for chemical stability assays were freshly prepared before each assay. […] The pH of the sample was adjusted to the desired value using appropriate amounts of concentrated NaOH and HCl. […] Formation of covalent oligomers (HMWPs) was analysed and identified by a SEC-MS method. […] The LC system was coupled to both a TUV detector operated at 215 nm, 10 Hz and a high resolution QToF mass spectrometer from Waters (Synapt G2S) operated in positive ion mode and m/z range of 100 to 4000 with normal resolution setting. Lock mass correction against Leu-Enkephalin was done every 31 sec. Spectra were processed in MassLynx version 4.1 and MaxEnt deconvoluted.

Molecule | ThT Assay Lag time [1] [h] | Purity loss (%/month) [2] [%/month] | HMWP formation (%/month) [3] [%/month]
Y[Aib]EGTFISDYSIA[Nle]DKIHQQDFVK([γGlu-γGlu-γGlu-C18 diacid])WLLAQKGKENDWKHNITQ [Compound 33, N{Epsilon-24}-[(4S)-4-carboxy-4-[[(4S)-4-carboxy-4-[[(4S)-4-carboxy-4-(17-carboxyheptadecanoylamino)butanoyl]amino]butanoyl]amino]butanoyl]-[Aib2,Nle14,Lys24,Glu33]-hGIP] | >45 | 34.50 | 0.32
CCCC[C@H](NC(=O)[C@H](C)NC(=O)[C@@H](NC(=O)[C@H](CO)NC(=O)[C@H](Cc1ccc(O)cc1)NC(=O)[C@H](CC(=O)O)NC(=O)[C@H](CO)NC(=O)[C@@H](NC(=O)[C@H](Cc1ccccc1)NC(=O)[C@@H](NC(=O)CNC(=O)[C@H](CCC(=O)O)NC(=O)C(C)(C)NC(=O)[C@@H](N)Cc1ccc(O)cc1)[C@@H](C)O)[C@@H](C)CC)[C@@H](C)CC)C(=O)N[C@@H](CC(=O)O)C(=O)N[C@@H](CCCCN)C(=O)N[C@H](C(=O)N[C@@H](Cc1c[nH]cn1)C(=O)N[C@@H](CCC(N)=O)C(=O)N[C@@H](CCC(=O)O)C(=O)N[C@@H](CC(=O)O)C(=O)N[C@@H](Cc1ccccc1)C(=O)N[C@H](C(=O)N[C@@H](CCCCNC(=O)CC[C@H](NC(=O)CC[C@H](NC(=O)CC[C@H](NC(=O)CC[C@H](NC(=O)C1CCC(CNC(=O)CCCCCCCCCCCCCCCCCCC(=O)O)CC1)C(=O)O)C(=O)O)C(=O)O)C(=O)O)C(=O)N[C@@H](Cc1c[nH]c2ccccc12)C(=O)N[C@@H](CC(C)C)C(=O)N[C@@H](CC(C)C)C(=O)N[C@@H](C)C(=O)N[C@@H](CCC(N)=O)C(=O)N[C@@H](CCCCN)C(=O)NCC(=O)O)C(C)C)[C@@H](C)CC (stereo partly drawn) [Compound 21, N{Epsilon-24}-[(4S)-4-carboxy-4-[[(4S)-4-carboxy-4-[[(4S)-4-carboxy-4-[[(4S)-4-carboxy-4-[[4-[(19-carboxynonadecanoylamino)methyl]cyclohexanecarbonyl]-amino]butanoyl]-amino]butanoyl]amino]butanoyl]amino]butanoyl]-[Aib2,Nle14,Glu20,Lys24]-hGIP(1-31)] (H-Y[Aib]EGTFISDYSIA[Nle]DKIHQEDFVK([γGlu-γGlu-γGlu-γGlu-X1])WLLAQKG-OH; N-terminus and C-terminus assumed) | >45 | 3.20 | 0.40
CCCC[C@H](NC(=O)[C@H](C)NC(=O)[C@@H](NC(=O)[C@H](CO)NC(=O)[C@H](Cc1ccc(O)cc1)NC(=O)[C@H](CC(=O)O)NC(=O)[C@H](CO)NC(=O)[C@@H](NC(=O)[C@H](Cc1ccccc1)NC(=O)[C@@H](NC(=O)CNC(=O)[C@H](CCC(=O)O)NC(=O)C(C)(C)NC(=O)[C@@H](N)Cc1ccc(O)cc1)[C@@H](C)O)[C@@H](C)CC)[C@@H](C)CC)C(=O)N[C@@H](CC(=O)O)C(=O)N[C@@H](CCCCN)C(=O)N[C@H](C(=O)N[C@@H](CCCNC(=N)N)C(=O)N[C@@H](CCC(N)=O)C(=O)N[C@@H](CCC(N)=O)C(=O)N[C@@H](CC(=O)O)C(=O)N[C@@H](Cc1ccccc1)C(=O)N[C@H](C(=O)N[C@@H](CCCCNC(=O)CC[C@H](NC(=O)CC[C@H](NC(=O)CC[C@H](NC(=O)CCCCCCCCCCCCCCCCC(=O)O)C(=O)O)C(=O)O)C(=O)O)C(=O)N[C@@H](Cc1c[nH]c2ccccc12)C(=O)N[C@@H](CC(C)C)C(=O)N[C@@H](CC(C)C)C(=O)N[C@@H](C)C(=O)N[C@@H](CCC(N)=O)C(=O)N[C@@H](CCCCN)C(=O)NCC(=O)O)C(C)C)[C@@H](C)CC [Compound 1, N{Epsilon-24}-[(4S)-4-carboxy-4-[[(4S)-4-carboxy-4-[[(4S)-4-carboxy-4-(17-carboxyheptadecanoylamino)butanoyl]amino]butanoyl]amino]butanoyl]-[Aib2,Nle14,Arg18,Lys24]-hGIP(1-31)] | >45 | 5.60 | 0.30
CCCC[C@H](NC(=O)[C@H](C)NC(=O)[C@@H](NC(=O)[C@H](CO)NC(=O)[C@H](Cc1ccc(O)cc1)NC(=O)[C@H](CC(=O)O)NC(=O)[C@H](CO)NC(=O)[C@@H](NC(=O)[C@H](Cc1ccccc1)NC(=O)[C@@H](NC(=O)CNC(=O)[C@H](CCC(=O)O)NC(=O)C(C)(C)NC(=O)[C@@H](N)Cc1ccc(O)cc1)[C@@H](C)O)[C@@H](C)CC)[C@@H](C)CC)C(=O)N[C@@H](CC(=O)O)C(=O)N[C@@H](CCCCN)C(=O)N[C@H](C(=O)N[C@@H](CCCNC(=N)N)C(=O)N[C@@H](CCC(N)=O)C(=O)N[C@@H](CCC(N)=O)C(=O)N[C@@H](CC(=O)O)C(=O)N[C@@H](Cc1ccccc1)C(=O)N[C@H](C(=O)N[C@@H](CCCCNC(=O)CC[C@H](NC(=O)CC[C@H](NC(=O)CC[C@H](NC(=O)CCCCCCCCCCCCCCCCC(=O)O)C(=O)O)C(=O)O)C(=O)O)C(=O)N[C@@H](Cc1c[nH]c2ccccc12)C(=O)N[C@@H](CC(C)C)C(=O)N[C@@H](CC(C)C)C(=O)N[C@@H](C)C(=O)N[C@@H](CCC(N)=O)C(=O)N[C@@H](CCCCN)C(=O)NCC(=O)N[C@@H](CCCCN)C(=O)N[C@@H](CCC(=O)O)C(=O)N[C@@H](CC(N)=O)C(=O)N[C@@H](CC(=O)O)C(=O)N[C@@H](Cc1c[nH]c2ccccc12)C(=O)N[C@@H](CCCCN)C(=O)N[C@@H](Cc1c[nH]cn1)C(=O)N[C@@H](CC(N)=O)C(=O)N[C@H](C(=O)N[C@H](C(=O)N[C@@H](CCC(N)=O)C(=O)O)[C@@H](C)O)[C@@H](C)CC)C(C)C)[C@@H](C)CC [Compound 34, N{Epsilon-24}-[(4S)-4-carboxy-4-[[(4S)-4-carboxy-4-[[(4S)-4-carboxy-4-(17-carboxyheptadecanoylamino)butanoyl]amino]butanoyl]amino]butanoyl]-[Aib2,Nle14,Arg18,Lys24,Glu33]-hGIP] | >45 | – | –
